Earlier results as cited in patent US20230117205A1, “B7-H4 ANTIBODY-DRUG CONJUGATES FOR THE TREATMENT OF CANCER” (SEAGEN INC., priority 2021, published 2023).

Conditions: Phase 1 clinical trial; cited from earlier work

B1: B7H41001 (antibody)
heavy: QLQLQESGPGLVKPSETLSLTCTVSGGSIKSGSYYWGWIRQPPGKGLEWIGNIYYSGSTYYNPSLRSRVTISVDTSKNQFSLKLSSVTAADTAVYYCAREGSYPNQFDPWGQGTLVTVSS[human IgG1 constant region not listed]
light: EIVMTQSPATLSVSPGERATLSCRASQSVSSNLAWYQQKPGQAPRLLIYGASTRATGIPARFSGSGSGTEFTLTISSLQSEDFAVYYCQQYHSFPFTFGGGTKVEIKRTVAAPSVFIFPPSDEQLKSGTASVVCLLNNFYPREAKVQWKVDNALQSGNSQESVTEQDSKDSTYSLSSTLTLSKADYEKHKVYACEVTHQGLSSPVTKSFNRGEC
modifications: non-natural residues; cyclised or stapled
  safety profile: favorable safety profile
